{"source": "the supplement of paper PMC10126150", "note": "Sequences with one replicate were seen in a single cluster, so their values are uncertain.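 Further: ATP exposure 15 min at 22 °C before imaging.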"}
{"tested_on": "ATP", "test": "switch fluorescence ratio, 500 uM ATP over buffer (Cy3 cluster intensity, sum of 5 cycles each) (fold (ratio)); higher = stronger signal-on switching upon ATP binding; sequences stand for … in TCGTCGGCAGCGTCAGATGTGTATAAGAGACAGTTTTTTTTTTTTTTTTTTTTTTTTT…TC", "conditions": "aptamer strand: ATP DNA aptamer (quencher-CACCTGGGGGAGTATTGCGGAGGAAGG + anchor), 100 nM annealed; ATP concentration: 500 uM; one replicate", "outline": "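Cy3-labelled switching-strand clusters on a modified Illumina MiSeq flow-cell were annealed to 100 nM quencher-labelled ATP aptamer, imaged in selection buffer, then imaged after 15 min with 500 uM ATP at 22 °C. Five buffer/ATP cycles ran, with NaOH stripping and re-annealing between them. The fluorescence ratio is summed target-cycle over summed buffer-cycle Cy3 intensity per cluster, averaged per switch-domain sequence. Clusters outside 100-1000 RFU were excluded.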"}
{"sequence": "CGCAAGGAAG", "switch fluorescence ratio": 1.12}
{"sequence": "CGCAAGTCAT", "switch fluorescence ratio": 1.04}
{"sequence": "CGCAAGTGCA", "switch fluorescence ratio": 1.22}
{"sequence": "CGCACACTT", "switch fluorescence ratio": 1.36}
{"sequence": "CGCACAGTG", "switch fluorescence ratio": 1.32}
{"sequence": "CGCACGGCCT", "switch fluorescence ratio": 1.01}
{"sequence": "CGCACTGCCT", "switch fluorescence ratio": 1.11}
{"sequence": "CGCACTTGCA", "switch fluorescence ratio": 1.07}
{"sequence": "CGCAGAGGCA", "switch fluorescence ratio": 1.01}
{"sequence": "CGCAGGAGTG", "switch fluorescence ratio": 1.05}
{"sequence": "CGCAGGGAA", "switch fluorescence ratio": 1.02}
{"sequence": "CGCAGGGACC", "switch fluorescence ratio": 1.13}
{"sequence": "CGCAGGGGTA", "switch fluorescence ratio": 1.08}
{"sequence": "CGCAGGTCGA", "switch fluorescence ratio": 1.09}
{"sequence": "CGCAGTGTCT", "switch fluorescence ratio": 1.04}
{"sequence": "CGCAGTTGTT", "switch fluorescence ratio": 1.02}
{"sequence": "CGCAGTTTGT", "switch fluorescence ratio": 1.06}
{"sequence": "CGCATAGATT", "switch fluorescence ratio": 1.03}
{"sequence": "CGCATATCCG", "switch fluorescence ratio": 1.16}
{"sequence": "CGCATATGTT", "switch fluorescence ratio": 1.19}
{"sequence": "CGCATCGATG", "switch fluorescence ratio": 1.02}
{"sequence": "CGCATCTACT", "switch fluorescence ratio": 3.64}
{"sequence": "CGCATCTTAG", "switch fluorescence ratio": 1.12}
{"sequence": "CGCATGATTA", "switch fluorescence ratio": 1.05}
{"sequence": "CGCATGGTCA", "switch fluorescence ratio": 1.14}
{"sequence": "CGCATTGCAT", "switch fluorescence ratio": 1.07}
{"sequence": "CGCCACCTCT", "switch fluorescence ratio": 1.01}
{"sequence": "CGCCATTTTA", "switch fluorescence ratio": 0.982}
{"sequence": "CGCCGAATGG", "switch fluorescence ratio": 1.05}
{"sequence": "CGCCGCCATT", "switch fluorescence ratio": 1.78}
{"sequence": "CGCCGCCGAG", "switch fluorescence ratio": 1.35}
{"sequence": "CGCCGCCTTT", "switch fluorescence ratio": 1.22}
{"sequence": "CGCCGCGTCG", "switch fluorescence ratio": 1.11}
{"sequence": "CGCCGGGACG", "switch fluorescence ratio": 1.05}
{"sequence": "CGCCGGTAAT", "switch fluorescence ratio": 1.11}
{"sequence": "CGCCGGTCGG", "switch fluorescence ratio": 1.01}
{"sequence": "CGCCGTTTGG", "switch fluorescence ratio": 1.01}
{"sequence": "CGCCTAATAA", "switch fluorescence ratio": 1.04}
{"sequence": "CGCCTCAACG", "switch fluorescence ratio": 1.05}
{"sequence": "CGCCTCTCTG", "switch fluorescence ratio": 1.04}
{"sequence": "CGCCTGATTG", "switch fluorescence ratio": 0.958}
{"sequence": "CGCCTTAGGT", "switch fluorescence ratio": 1.02}
{"sequence": "CGCCTTGCTT", "switch fluorescence ratio": 0.983}
{"sequence": "CGCGAAATGC", "switch fluorescence ratio": 1.32}
{"sequence": "CGCGAACTAT", "switch fluorescence ratio": 1.01}
{"sequence": "CGCGAATGAT", "switch fluorescence ratio": 1.01}
{"sequence": "CGCGAGAATG", "switch fluorescence ratio": 1.01}
{"sequence": "CGCGAGTGGG", "switch fluorescence ratio": 1.03}
{"sequence": "CGCGATGTTG", "switch fluorescence ratio": 1.02}
{"sequence": "CGCGCACTTG", "switch fluorescence ratio": 1}
{"sequence": "CGCGCATCTC", "switch fluorescence ratio": 2.13}
{"sequence": "CGCGCCTAAC", "switch fluorescence ratio": 1.44}
{"sequence": "CGCGGAATTT", "switch fluorescence ratio": 0.998}
{"sequence": "CGCGGAGGCG", "switch fluorescence ratio": 0.977}
{"sequence": "CGCGGCAGGT", "switch fluorescence ratio": 1.05}
{"sequence": "CGCGGCTGAA", "switch fluorescence ratio": 1.02}
{"sequence": "CGCGGGACCA", "switch fluorescence ratio": 0.999}
{"sequence": "CGCGGGTAAT", "switch fluorescence ratio": 0.998}
{"sequence": "CGCGGTCAAT", "switch fluorescence ratio": 1.34}
{"sequence": "CGCGTAGGGA", "switch fluorescence ratio": 1.02}
{"sequence": "CGCGTCATTT", "switch fluorescence ratio": 0.984}
{"sequence": "CGCGTCGCCC", "switch fluorescence ratio": 1.02}
{"sequence": "CGCGTCGGAA", "switch fluorescence ratio": 1.03}
{"sequence": "CGCGTGAACT", "switch fluorescence ratio": 1.01}
{"sequence": "CGCGTGAGGG", "switch fluorescence ratio": 1.03}
{"sequence": "CGCGTGGAAA", "switch fluorescence ratio": 0.987}
{"sequence": "CGCGTGTGAA", "switch fluorescence ratio": 1}
{"sequence": "CGCGTTGATG", "switch fluorescence ratio": 0.979}
{"sequence": "CGCTACCGTA", "switch fluorescence ratio": 1.09}
{"sequence": "CGCTACTCTT", "switch fluorescence ratio": 3.08}
{"sequence": "CGCTAGCGGA", "switch fluorescence ratio": 1.01}
{"sequence": "CGCTCCTTTA", "switch fluorescence ratio": 1.02}
{"sequence": "CGCTCGGCGG", "switch fluorescence ratio": 0.987}
{"sequence": "CGCTCGGGAA", "switch fluorescence ratio": 1.03}
{"sequence": "CGCTCTATTA", "switch fluorescence ratio": 1.03}
{"sequence": "CGCTGAGATA", "switch fluorescence ratio": 1.06}
{"sequence": "CGCTGAGCGC", "switch fluorescence ratio": 1.01}
{"sequence": "CGCTGGAGTT", "switch fluorescence ratio": 1.07}
{"sequence": "CGCTGGTCGT", "switch fluorescence ratio": 0.987}
{"sequence": "CGCTGTGGCA", "switch fluorescence ratio": 0.996}
{"sequence": "CGCTTAGTAA", "switch fluorescence ratio": 1.01}
{"sequence": "CGCTTCAAGC", "switch fluorescence ratio": 1.01}
{"sequence": "CGCTTCCCA", "switch fluorescence ratio": 1.15}
{"sequence": "CGCTTCGACC", "switch fluorescence ratio": 2.14}
{"sequence": "CGCTTGAAG", "switch fluorescence ratio": 0.97}
{"sequence": "CGCTTGATGA", "switch fluorescence ratio": 1.01}
{"sequence": "CGCTTGCGGA", "switch fluorescence ratio": 1.01}
{"sequence": "CGCTTGTCGC", "switch fluorescence ratio": 0.999}
{"sequence": "CGCTTGTCTA", "switch fluorescence ratio": 0.957}
{"sequence": "CGCTTTATCC", "switch fluorescence ratio": 1.21}
{"sequence": "CGCTTTCTGT", "switch fluorescence ratio": 1.04}
{"sequence": "CGCTTTGATG", "switch fluorescence ratio": 0.99}
{"sequence": "CGCTTTGGTC", "switch fluorescence ratio": 1.88}
{"sequence": "CGCTTTTAAA", "switch fluorescence ratio": 1.01}
{"sequence": "CGGAAAATAT", "switch fluorescence ratio": 0.976}
{"sequence": "CGGAAATATT", "switch fluorescence ratio": 1.01}
{"sequence": "CGGAACAAAT", "switch fluorescence ratio": 1.03}
{"sequence": "CGGAACATTA", "switch fluorescence ratio": 1}
{"sequence": "CGGAACCTGT", "switch fluorescence ratio": 0.998}
{"sequence": "CGGAAGCCG", "switch fluorescence ratio": 1.09}
